The labels stand for the following.
T1: RBFOX1 RRM (Homo sapiens, UniProt Q9NWB1 109-208)
T1 sequence: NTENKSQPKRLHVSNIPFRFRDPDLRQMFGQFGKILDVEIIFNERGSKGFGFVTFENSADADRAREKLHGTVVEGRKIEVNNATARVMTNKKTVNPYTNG

B1: GCCCGAA (DNA:RNA)
RNA: GGGAGACCGGAAUUCAGAUUGUCCGCCCGAAUUAAAUCCCGUCGUAGCCACCA
DNA 1: CAATCTGAATTCCGGTCTCCC
DNA 2: TGGTGGCTACGACGGGATT
B2: CCAGCCA (DNA:RNA)
RNA: B1 RNA with G25C, C27A, C28G, G29C, A30C
DNA 1: CAATCTGAATTCCGGTCTCCC
DNA 2: TGGTGGCTACGACGGGATT
B3: GCUCAGU (DNA:RNA)
RNA: B1 RNA with C27U, G29A, A30G, A31U
DNA 1: CAATCTGAATTCCGGTCTCCC
DNA 2: TGGTGGCTACGACGGGATT
B4: GGGUCUG (DNA:RNA)
RNA: B1 RNA with C26G, C27G, C28U, G29C, A30U, A31G
DNA 1: CAATCTGAATTCCGGTCTCCC
DNA 2: TGGTGGCTACGACGGGATT
B5: AGACGAG (DNA:RNA)
RNA: B1 RNA with G25A, C26G, C27A, A31G
DNA 1: CAATCTGAATTCCGGTCTCCC
DNA 2: TGGTGGCTACGACGGGATT
B6: UCAGGAC (DNA:RNA)
RNA: B1 RNA with G25U, C27A, C28G, A31C
DNA 1: CAATCTGAATTCCGGTCTCCC
DNA 2: TGGTGGCTACGACGGGATT
B7: CCAGCCC (DNA:RNA)
RNA: B1 RNA with G25C, C27A, C28G, G29C, A30C, A31C
DNA 1: CAATCTGAATTCCGGTCTCCC
DNA 2: TGGTGGCTACGACGGGATT
B8: CUCCCCG (DNA:RNA)
RNA: B1 RNA with G25C, C26U, G29C, A30C, A31G
DNA 1: CAATCTGAATTCCGGTCTCCC
DNA 2: TGGTGGCTACGACGGGATT
B9: UAACGCG (DNA:RNA)
RNA: B1 RNA with G25U, C26A, C27A, A30C, A31G
DNA 1: CAATCTGAATTCCGGTCTCCC
DNA 2: TGGTGGCTACGACGGGATT
B10: UUUAUAU (DNA:RNA)
RNA: B1 RNA with G25U, C26U, C27U, C28A, G29U, A31U
DNA 1: CAATCTGAATTCCGGTCTCCC
DNA 2: TGGTGGCTACGACGGGATT
B11: UAUCGUC (DNA:RNA)
RNA: B1 RNA with G25U, C26A, C27U, A30U, A31C
DNA 1: CAATCTGAATTCCGGTCTCCC
DNA 2: TGGTGGCTACGACGGGATT
B12: UGCGUAU (DNA:RNA)
RNA: B1 RNA with G25U, C26G, C28G, G29U, A31U
DNA 1: CAATCTGAATTCCGGTCTCCC
DNA 2: TGGTGGCTACGACGGGATT
B13: CCAGGGU (DNA:RNA)
RNA: B1 RNA with G25C, C27A, C28G, A30G, A31U
DNA 1: CAATCTGAATTCCGGTCTCCC
DNA 2: TGGTGGCTACGACGGGATT
B14: GGGCUCU (DNA:RNA)
RNA: B1 RNA with C26G, C27G, G29U, A30C, A31U
DNA 1: CAATCTGAATTCCGGTCTCCC
DNA 2: TGGTGGCTACGACGGGATT
B15: GUGGUGG (DNA:RNA)
RNA: B1 RNA with C26U, C27G, C28G, G29U, A30G, A31G
DNA 1: CAATCTGAATTCCGGTCTCCC
DNA 2: TGGTGGCTACGACGGGATT
B16: CAACACU (DNA:RNA)
RNA: B1 RNA with G25C, C26A, C27A, G29A, A30C, A31U
DNA 1: CAATCTGAATTCCGGTCTCCC
DNA 2: TGGTGGCTACGACGGGATT
B17: ACCUUGU (DNA:RNA)
RNA: B1 RNA with G25A, C28U, G29U, A30G, A31U
DNA 1: CAATCTGAATTCCGGTCTCCC
DNA 2: TGGTGGCTACGACGGGATT
B18: AUUUCGG (DNA:RNA)
RNA: GGGAGACCGGAAUUCAGAUUGUCCAUUUCGGUUAAAUCCCGUCGUAGCCACCA
DNA 1: CAATCTGAATTCCGGTCTCCC
DNA 2: TGGTGGCTACGACGGGATT
B19: AUCUGAG (DNA:RNA)
RNA: B18 RNA with U27C, C29G, G30A
DNA 1: CAATCTGAATTCCGGTCTCCC
DNA 2: TGGTGGCTACGACGGGATT
B20: CGCUAUA (DNA:RNA)
RNA: B1 RNA with G25C, C26G, C28U, G29A, A30U
DNA 1: CAATCTGAATTCCGGTCTCCC
DNA 2: TGGTGGCTACGACGGGATT

Changes are numbered by the printed parent chain; changes in the protein carry UniProt numbers. Some of the results follow.

The test deals with T1, RBFOX1 RRM. The experiment in a line: EMSA; HiTS-Eq, 1 nM pool, 10 min; buffer printed only for the single-RNA assays: 10 mM Tris pH 7.5, 150 mM NaCl, 3.4 mM EDTA, 0.001% NP-40, 30 C. Particulars: tags: His6 N-terminal (pET28a); label: 5' 32P. A digest of the protocol:
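Relative association constants, normalised to the cognate motif, were derived by comparing read counts of each RNA species with those of the control reaction. The RNA sequenced was the free fraction, separated by 8% native PAGE after a 10 min equilibration in 50 µL of 1 nM 5′-radiolabelled RNA (7 randomized nucleotides) with increasing concentrations of purified wild-type or mutant RbFox RRM.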
On the technique in general: A gel shift assay detects complexes by their altered migration in electrophoresis.
With B1, the binding signal was 0.0111 KA relative to UGCAUGU. For the molecule B2, the binding signal is 0.00333 KA relative to UGCAUGU. The figure for B3 is 0.0126 KA relative to UGCAUGU. Next, B4: 0.0262 KA relative to UGCAUGU.

In the case of B5, the binding signal is 0.00948 KA relative to UGCAUGU. Consider B6, for which the binding signal is 0.00512 KA relative to UGCAUGU. Next, B7: 0.00534 KA relative to UGCAUGU. With B8, the binding signal was 0.00115 KA relative to UGCAUGU. On to B9, for which the binding signal was 0.0108 KA relative to UGCAUGU. As for B10, the binding signal is 0.00264 KA relative to UGCAUGU. As to B11, the binding signal was 0.00934 KA relative to UGCAUGU. Next, B12: 0.015 KA relative to UGCAUGU; B13: 0.00727 KA relative to UGCAUGU. For B14, the binding signal is 0.0214 KA relative to UGCAUGU.

Regarding B15, the binding signal was 0.0237 KA relative to UGCAUGU.

With B16, the binding signal was 0.000632 KA relative to UGCAUGU. Next, B17: 0.01 KA relative to UGCAUGU; B18: 0.0104 KA relative to UGCAUGU. With B19, the binding signal is 0.0218 KA relative to UGCAUGU.

Take B20: the binding signal was 0.00135 KA relative to UGCAUGU.
